PubChem BioAssay AID1347073 (National Center for Advancing Translational Sciences (NCATS), 2019)
The campaign covered roughly 45,000 compounds. About 200 (0.44%) were called active. The shares of active, inactive and inconclusive entries below differ from those in the screen. Calls come from the whole dose curve; as a rule, active = well fitted activation curve with a large enough effect; inconclusive = small, poorly fitted or top-dose-only effect; inactive = no such curve, though single readings can be large or run the other way. Potencies beside an inconclusive call are fits to weak or partial responses and may not hold up.

Assay: qHTS of TDP-43 Inhibitors: NCGC Sytravon Library Screen; note: nearly all actives have a fitted effect of over 55% in size; for growth rescue (activation): 0% is about no effect
Conditions: yeast TDP-43 toxicity rescue, BacTiter-Glo growth, 24 h; growth rescue (activation): at 46.1 µM (top of the series)
How it was run: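 TDP-43-expressing yeast, pregrown in raffinose, seeded at OD600 0.02 in galactose medium with compound for 24 hr at 30 deg C. Growth read by BacTiter-Glo luminescence, so rescue of toxicity appears as activation.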
Potency is the fitted concentration of half-maximal effect; tags give direction and shape of the fitted curve.

With COc1ccccc1N/N=C1\COC(C)(C)CC1=O as the compound, how does the “growth rescue (activation)” value read?
Its value is inactive: 5.04%.

For O=C(COC(=O)CSc1ccc2ccccc2c1)NCc1ccc2c(c1)OCO2, which Potency is on record?
Its Potency is inconclusive: 35.5 µM [activator, single point].

With C#Cc1ccc(NC(=O)C2(C)CCN2C(=O)C/C=C/c2ccccc2)cc1 (stereo not drawn) as the compound, how does the Potency read?
The Potency was inconclusive: 22.4 µM [activator, partial curve, poor fit].

Which growth rescue (activation) does the source give for CC(=O)NC(c1cccc(F)c1)c1nc(-c2cccc(F)c2)cs1 (stereo not drawn) here?
The growth rescue (activation) was inconclusive: 35.6% [activator].

With COc1ccc(OC)c(CNc2ccc3c(c2)CCC3)c1 as the compound, how does the “growth rescue (activation)” value read?
The value was inactive: -8.01%.

For C/C(=N\NC(=O)c1nnn(-c2nonc2N)c1C(C)C)c1cc(C)sc1C, which “growth rescue (activation)” value is on record?
Its value is inactive: -9.06%.

With Cc1nc(SCC(=O)NCc2ccco2)c2oc3ccccc3c2n1 as the compound, how does the Potency read?
The Potency was inconclusive: 35.5 µM [activator, partial curve, poor fit].

For Cc1ccc(-c2ccc(/C=N/c3ncn[nH]3)o2)cc1Cl, which Potency is on record?
Its Potency is inconclusive: 11.2 µM [activator, partial curve, poor fit].

With CCCCOc1ccc(C(=O)N(Cc2ccc(N(C)C)cc2)Cc2ccco2)cc1 as the compound, how does the Potency read?
The Potency was inconclusive: 20 µM [activator, partial curve, poor fit].

With N#Cc1ccc(CSc2nnc(NC(=O)c3ccc(=O)[nH]c3)s2)cc1 as the compound, how does the Potency read?
The Potency was inconclusive: 35.5 µM [activator, partial curve, poor fit].

Which Potency does the source give for N/C(CC(=O)NC1CCCCC1)=N\OCC(=O)Nc1ccc(Cl)c(Cl)c1 here?
The Potency was inconclusive: 20 µM [activator, single point].

Which Potency does the source give for COc1ccccc1C(=O)Nc1cccc(NC(=O)c2ccccc2C)c1 here?
The Potency was active: 14.1 µM.

Which “growth rescue (activation)” value does the source give for Cc1ccccc1/C=N/Nc1nc2ccccc2c(=O)n1O here?
Its value is inactive: 3.43%.

Which Potency does the source give for O=C(Nc1nc(-c2ccccn2)cs1)c1ccc([N+](=O)[O-])o1 here?
Its Potency is inconclusive: 35.5 µM [activator, single point].

For O=C(/C=C/c1cccc(Cl)c1Cl)OCC(=O)N1CCOCC1, which “growth rescue (activation)” value is on record?
Its value is inactive: 8.01%.

With COc1ccc(CCNCC(O)COc2cccc(Br)c2)cc1OC (stereo not drawn) as the compound, how does the Potency read?
The Potency was inconclusive: 35.5 µM [activator, single point].

For O=C(N/N=C\c1cccc([N+](=O)[O-])c1O)C1COc2ccccc2O1 (stereo not drawn), which Potency is on record?
The Potency was active: 10 µM.

With C/C(=N\OCC(=O)Nc1ccccc1C(C)(C)C)c1ccc2c(c1)OCCO2 as the compound, how does the Potency read?
The Potency was inconclusive: 22.4 µM [activator, single point].

With O=C(O)C1CC(=O)N(c2ccc(OCc3ccccc3Cl)cc2)C1 (stereo not drawn) as the compound, how does the Potency read?
The Potency was inconclusive: 11.2 µM [activator, partial curve, poor fit].

For CC(=O)Nc1ccc(N=Cc2ccc(OCc3ccccc3)cc2)cc1, which Potency is on record?
The Potency was inconclusive: 17.8 µM [activator, partial curve, poor fit].

With COc1cc(C2c3c(oc4ccccc4c3=O)C(=O)N2c2ccccn2)cc(OC)c1OC (stereo not drawn) as the compound, how does the “growth rescue (activation)” value read?
Its value is inactive: -3.3%.

With CCOc1ccc(Cl)cc1-c1cc(C(=O)Nc2ccc(Br)cc2)[nH]n1 as the compound, how does the growth rescue (activation) read?
Its growth rescue (activation) is inconclusive: 69.2% [activator].

For Cc1ccc(C)c(S(=O)(=O)N2CCN(CC(=O)Nc3ccc([N+](=O)[O-])cc3)CC2)c1, which “growth rescue (activation)” value is on record?
Its value is inactive: 21.5%.

For CCOC(=O)c1nnn(-c2nonc2-n2cccc2)c1CCl, which Potency is on record?
Its Potency is inconclusive: 12.6 µM [activator, partial curve, poor fit].

For CC(C)Cn1c(-c2ccc(Br)cc2)c[nH]c1=S, which Potency is on record?
Its Potency is inconclusive: 8.91 µM [activator, partial curve, poor fit].

For NS(=O)(=O)c1cccc(NC(=O)COC(=O)CCC2CCCC2)c1, which “growth rescue (activation)” value is on record?
The value was inactive: 18.8%.

For COc1ccc2c(c1)Cc1sc(NC(=O)c3cccc(C)c3)nc1-2, which Potency is on record?
Its Potency is inconclusive: 7.94 µM [activator, partial curve].

For CCOC(=O)CN1N=C(/C=C/c2ccc(C(C)C)cc2)CCC1=O, which Potency is on record?
The Potency was inconclusive: 22.4 µM [activator, partial curve, poor fit].

With CCCC(=O)Nc1cc(OC)c(NC(=S)Nc2ccc(CC)cc2)cc1OC as the compound, how does the “growth rescue (activation)” value read?
The value was inactive: 21.7%.

With Cc1nn(-c2ccccc2)cc1C(=S)Nc1ccccc1 as the compound, how does the Potency read?
The Potency was inconclusive: 15.8 µM [activator, partial curve, poor fit].

Which “growth rescue (activation)” value does the source give for Cc1onc(-c2ccccc2)c1C(=O)NC(=S)NNC(=O)c1ccco1 here?
Its value is inactive: -33.5%.

Which Potency does the source give for Oc1ccccc1C(Nc1nccs1)c1ccc2cccnc2c1O (stereo not drawn) here?
Its Potency is inconclusive: 35.5 µM [activator, single point].

With O=C(O)c1cccc(N/N=C/c2cccs2)c1 as the compound, how does the Potency read?
Its Potency is inconclusive: 35.5 µM [activator, single point].

For CCN1C(=O)C(=O)N(CC(=O)Nc2cccc(C(F)(F)F)c2)C1=O, which “growth rescue (activation)” value is on record?
The value was inactive: 5.06%.

With CCCCNC(=O)Nc1nc2ccccc2s1 as the compound, how does the Potency read?
Its Potency is inconclusive: 14.1 µM [activator, partial curve, poor fit].

For Cc1cc(Cl)ccc1OC(C)C(=O)Nc1ccccc1N1CCOCC1 (stereo not drawn), which Potency is on record?
The Potency was inconclusive: 17.8 µM [activator, partial curve, poor fit].

For COc1ccccc1/C=C/c1nc(C#N)c(NCC(C)C)o1, which Potency is on record?
Its Potency is inconclusive: 17.8 µM [activator, single point].

With O=C(/C(=C\c1ccccc1)c1nc2ccccc2[nH]1)c1ccc(Cl)cc1 as the compound, how does the “growth rescue (activation)” value read?
The value was inactive: 29.3%.

Which Potency does the source give for Cc1ccc(O)c(C(=O)/C=C/c2ccc3c(c2)OCCCO3)c1 here?
The Potency was inconclusive: 15.8 µM [activator, partial curve, poor fit].

With Cc1nc(N2CCOCC2)nc(N2CCCC2)c1[N+](=O)[O-] as the compound, how does the Potency read?
Its Potency is inconclusive: 20 µM [activator, single point].

With CC1(C(=O)NS(=O)(=O)c2ccc(Cl)cc2)CCN1C(=O)C1(c2ccc(Cl)cc2)CCC1 (stereo not drawn) as the compound, how does the growth rescue (activation) read?
Its growth rescue (activation) is inconclusive: 50.9% [activator].

Which “growth rescue (activation)” value does the source give for Cc1cccc(C)c1N1CCN(C(=O)N2CCCCC2)CC1 here?
The value was inactive: -4.51%.

For N#Cc1cccc(NC(=O)c2cc(C3CCCCN3C(=O)c3ccc4c(c3)CCO4)on2)c1 (stereo not drawn), which growth rescue (activation) is on record?
The growth rescue (activation) was inconclusive: 31.3% [activator].

With Cc1cc(C)c(COc2ccc(/C=N/n3c(C)n[nH]c3=S)cc2)c(C)c1 as the compound, how does the Potency read?
Its Potency is inconclusive: 15.8 µM [activator, partial curve, poor fit].

With COc1ccccc1-c1nnc2sc(COc3ccc(Cl)cc3)nn12 as the compound, how does the Potency read?
The Potency was inconclusive: 28.2 µM [activator, single point].

Which Potency does the source give for N/N=C/C(=N\Nc1ccc(Cl)cc1)C(=O)c1ccncc1 here?
The Potency was inconclusive: 11.2 µM [activator, partial curve, poor fit].

With CC(C)(C)c1ccccc1NC(=S)NCc1ccccc1 as the compound, how does the Potency read?
The Potency was inconclusive: 20 µM [activator, single point].

With Cc1ccc(-c2nc(NC(=O)CSc3nc(C)nc4sc5c(c34)CCCC5)ns2)cc1 as the compound, how does the “growth rescue (activation)” value read?
Its value is inactive: 1.87%.

Which Potency does the source give for Cc1ccc(SC2=C(C(=O)O)CCCC2)cc1 here?
Its Potency is inconclusive: 10 µM [activator, partial curve, poor fit].

For Cc1noc(C)c1COC(=O)Cc1ccc(Cl)c(Cl)c1, which Potency is on record?
Its Potency is inconclusive: 11.2 µM [activator, partial curve, poor fit].

For CC(C)c1nc(C(=O)N2CCc3c([nH]c4ccccc34)C2c2ccccn2)cs1 (stereo not drawn), which Potency is on record?
Its Potency is inconclusive: 14.1 µM [activator, single point].

For CCOC(=O)c1ccc(NC(=S)NC2CCCC2)cc1, which Potency is on record?
Its Potency is inconclusive: 25.1 µM [activator, single point].

With CCOC(=O)C(=O)N(C)c1c(CC)nc2c(OCc3ccc(OC(F)F)cc3)cccn12 as the compound, how does the “growth rescue (activation)” value read?
Its value is inactive: 9.71%.

For O=C(O)c1ccc(NC2=C(n3nnc4ccccc43)C(=O)c3ccccc3C2=O)cc1, which Potency is on record?
The Potency was inconclusive: 10 µM [activator, partial curve].

Which Potency does the source give for CC(C)(C)CC(=O)O/N=C(\N)c1ccccn1 here?
The Potency was inconclusive: 20 µM [activator, partial curve, poor fit].

With CCc1nc2ccccc2c(C(=O)OCC(=O)Nc2cccc(S(=O)(=O)NC3=NCCCCC3)c2)c1C as the compound, how does the Potency read?
The Potency was inconclusive: 35.5 µM [activator, partial curve, poor fit].

Which Potency does the source give for Cc1ccc(-c2cc(C(=O)N/N=C/C(Br)=C/c3ccccc3)n[nH]2)o1 here?
The Potency was inconclusive: 35.5 µM [activator, single point].

With COc1cc(-c2nc3nc(C)cc(C)n3c2Nc2ccc(Cl)cc2)ccc1O as the compound, how does the “growth rescue (activation)” value read?
The value was inactive: 21.5%.

With CCCc1cc(=O)[nH]c(SCc2ccc(F)cc2)n1 as the compound, how does the Potency read?
The Potency was inconclusive: 12.6 µM [activator, single point].

With CN(Cc1ccccc1)C(=O)COC(=O)Cc1ccc(Cl)cc1 as the compound, how does the Potency read?
Its Potency is inconclusive: 11.2 µM [activator, partial curve].

With Nc1ccc(Oc2cccc(Oc3ccc(N)cc3)c2)cc1 as the compound, how does the Potency read?
Its Potency is inconclusive: 15.8 µM [activator, single point].

With COc1ccccc1NC(=O)CCc1c(C)nc2c(-c3ccc(F)cc3)c(C)nn2c1C as the compound, how does the Potency read?
Its Potency is inconclusive: 10 µM [activator, partial curve, poor fit].

With COc1ccc(Cl)cc1NC(=S)N(Cc1ccc(C(=O)O)cc1)Cc1ccc(OC)c(OC)c1 as the compound, how does the Potency read?
The Potency was inconclusive: 17.8 µM [activator, single point].

For COc1cc2c(cc1OC)C(c1cccs1)N(C(=O)c1cccc(S(=O)(=O)N(C)C)c1)CC2 (stereo not drawn), which Potency is on record?
The Potency was inconclusive: 35.5 µM [activator, single point].

With O=C(c1ccc2c(c1)N(Cc1ccccc1)C(=O)c1ccccc1S2(=O)=O)N1CCc2ccccc21 as the compound, how does the “growth rescue (activation)” value read?
Its value is inactive: 11.3%.

Which growth rescue (activation) does the source give for CCOc1ccc(Cl)cc1-c1cc(C(=O)NCC2CCCCC2)[nH]n1 here?
Its growth rescue (activation) is inconclusive: 83.3% [activator].

With CCCCNC(=S)Nc1ccc(Oc2ccccc2)cc1 as the compound, how does the Potency read?
Its Potency is inconclusive: 22.4 µM [activator, single point].

With Cc1ccc(CC(=O)O/N=C(\N)Cc2ccc([N+](=O)[O-])cc2)cc1 as the compound, how does the Potency read?
Its Potency is inconclusive: 10 µM [activator, partial curve].
